B1: GPR68, Q15743 (parent)
chain: MGNITADNSSMSCTIDHTIHQTLAPVVYVTVLVVGFPANCLSLYFGYLQIKARNELGVYLCNLTVADLFYICSLPFWLQYVLQHDNWSHGDLSCQVCGILLYENIYISVGFLCCISVDRYLAVAHPFRFHQFRTLKAAVGVSVVIWAKELLTSIYFLMHEEVIEDENQHRVCFEHYPIQAWQRAINYYRFLVGFLFPICLLLASYQGILRAVRRSHGTQKSRKDQIQRLVLSTVVIFLACFLPYHVLLLVRSVWEASCDFAKGVFNAYHFSLLLTSFNCVADPVLYCFVSETTHRDLARLRGACLAFLTCSRTGRAREAYPLGAPEASGKSGAQGEEPELLTKLHPAFQTPNSPGSGGFPTGRLA

The variants in series [1] derive from B1. Nature of the series: cAMP reporter score (Enrich2 score, wild type = 0); higher = more signal; HEK293T, FACS bins.
The variants in series [2] derive from B1. In words: surface expression score (Enrich2 score, wild type = 0); higher = more signal; HEK293T, FACS bins.

Scores whose standard error is large were omitted. Not listed are two conditions whose scores span a narrow range. Read del as a deletion of the residues named and ins as an insertion between two positions. For some assays here: How much ogerin was present is not stated here.

Consider L63_T64insGS, for which the cAMP reporter score in series [1] (pH 5.5) was -1.32; in series [1] (pH 6), -1.22; in series [1] (pH 6, modulator: ogerin) it was -1.64; in series [1] (pH 6.5, modulator: ogerin), -0.809. For the same variant, the surface expression score in series [2] was -1.98.
In the same order, the values of L60_N62del are -0.851, -0.939, -2.13, -1.12 and -2.96.
For the variant D67H, the cAMP reporter score in series [1] (pH 5.5) was -0.185; in series [1] (pH 6), 0.701; in series [1] (pH 6, modulator: ogerin), -0.722; in series [1] (pH 6.5, modulator: ogerin), -0.185. Also, the surface expression score in series [2] is -1.28.
D67P: the cAMP reporter score in series [1] (pH 5.5) is -1.48; in series [1] (pH 6), -1.15; in series [1] (pH 6, modulator: ogerin) it was -1.71; in series [1] (pH 6.5, modulator: ogerin) it was -1.18. The surface expression score in series [2] is -1.87.
In the case of D67C, the cAMP reporter score was -0.907 in series [1] (pH 5.5); -0.476 in series [1] (pH 6); 0.368 in series [1] (pH 6, modulator: ogerin); -0.737 in series [1] (pH 6.5, modulator: ogerin). Also, the surface expression score in series [2] amounted to 1.33.
The like results for D67M were, in that order, -2.25, -0.738, -1.42, -0.528 and -1.2.
The like results for D67L were, in that order, -0.709, -0.09, -0.856, -0.337 and -1.19.
The like results for D67G were, in that order, -1.15, -0.017, -1.13, -0.268 and 1.27.
Take D67E: the cAMP reporter score in series [1] (pH 5.5) is -0.42; in series [1] (pH 6) it was 0.051; in series [1] (pH 6, modulator: ogerin), -0.172; in series [1] (pH 6.5, modulator: ogerin), -0.25. In series [2], the surface expression score was -1.23.
In the same order, the values of D67Q are 0.07, 0.828, -0.348, -0.949 and 3.85.
In the same order, the values of D67R are -0.767, -0.389, 0.269, -0.814 and 0.685.
For D67F, the cAMP reporter score is -0.585 in series [1] (pH 5.5); -0.855 in series [1] (pH 6); -0.78 in series [1] (pH 6, modulator: ogerin); -0.596 in series [1] (pH 6.5, modulator: ogerin). For the same variant, the surface expression score in series [2] is -1.75.
For D67K, the cAMP reporter score was -0.482 in series [1] (pH 5.5); -0.119 in series [1] (pH 6); -0.665 in series [1] (pH 6, modulator: ogerin); -0.392 in series [1] (pH 6.5, modulator: ogerin). For the same variant, in series [2], the surface expression score was -0.395.
Regarding D67N, the cAMP reporter score in series [1] (pH 5.5) was -0.686; in series [1] (pH 6) it was -0.062; in series [1] (pH 6, modulator: ogerin) it was -0.842; in series [1] (pH 6.5, modulator: ogerin) it was -1.09. For the same variant, the surface expression score in series [2] was 1.66.
As to D67I, the cAMP reporter score in series [1] (pH 5.5) is -1.16; in series [1] (pH 6), -0.016; in series [1] (pH 6, modulator: ogerin), -1.04; in series [1] (pH 6.5, modulator: ogerin), -1.09. The surface expression score in series [2] was -1.66.
In the same order, the values of V65E are -1.54, -1.78, -2.08, -0.825 and -2.67.
Turning to V65I, the cAMP reporter score in series [1] (pH 5.5) was -1.33; in series [1] (pH 6), 0.284; in series [1] (pH 6, modulator: ogerin), -1.37; in series [1] (pH 6.5, modulator: ogerin), -0.169. In addition, the surface expression score in series [2] is -0.462.
As to V65L, the cAMP reporter score in series [1] (pH 5.5) is 0.322; in series [1] (pH 6) it was -0.711; in series [1] (pH 6, modulator: ogerin) it was 1.13; in series [1] (pH 6.5, modulator: ogerin), 1.18. Moreover, in series [2], the surface expression score was determined as 1.21.
V65G: the cAMP reporter score was -0.415 in series [1] (pH 5.5); -0.513 in series [1] (pH 6, modulator: ogerin); -0.891 in series [1] (pH 6.5, modulator: ogerin).
Take V65W: the cAMP reporter score is -1.31 in series [1] (pH 5.5); -1.29 in series [1] (pH 6); -0.881 in series [1] (pH 6.5, modulator: ogerin). In addition, the surface expression score in series [2] was -2.53.
As to V65K, the cAMP reporter score is -3.28 in series [1] (pH 5.5); -0.484 in series [1] (pH 6); -0.54 in series [1] (pH 6.5, modulator: ogerin).
As for V65P, the cAMP reporter score in series [1] (pH 5.5) was -0.752; in series [1] (pH 6), -1.54; in series [1] (pH 6, modulator: ogerin), -0.679; in series [1] (pH 6.5, modulator: ogerin) it was -0.846. For the same variant, the surface expression score in series [2] was -2.65.
As for V65H, the cAMP reporter score in series [1] (pH 5.5) was -1.11; in series [1] (pH 6, modulator: ogerin), -1.54; in series [1] (pH 6.5, modulator: ogerin), -1.87. Further, in series [2], the surface expression score is -2.19.
As to V65D, the cAMP reporter score in series [1] (pH 5.5) was -0.54; in series [1] (pH 6), 0.01; in series [1] (pH 6, modulator: ogerin) it was -2.05; in series [1] (pH 6.5, modulator: ogerin) it was -0.37. The surface expression score in series [2] is -1.46.
The like results for V65S were, in that order, -1.43, -1.27, -1.78, -1.37 and -0.999.
In the case of V65Y, the cAMP reporter score in series [1] (pH 5.5) is 0.435; in series [1] (pH 6) it was 0.567; in series [1] (pH 6.5, modulator: ogerin), 0.192. Moreover, the surface expression score in series [2] is -2.61.
Turning to V65A, the cAMP reporter score in series [1] (pH 5.5) was -0.171; in series [1] (pH 6), 0.087; in series [1] (pH 6, modulator: ogerin), -0.252; in series [1] (pH 6.5, modulator: ogerin), 0.331. The surface expression score in series [2] was -0.3.
Turning to V65M, the cAMP reporter score in series [1] (pH 5.5) is 0.03; in series [1] (pH 6) it was -0.073; in series [1] (pH 6, modulator: ogerin) it was -0.076; in series [1] (pH 6.5, modulator: ogerin), 0.535. Besides, the surface expression score in series [2] came to 0.103.
Consider V65R, for which the cAMP reporter score in series [1] (pH 5.5) is -0.413; in series [1] (pH 6, modulator: ogerin) it was 0.022. For the same variant, the surface expression score in series [2] is -1.47.
As to V65F, the cAMP reporter score in series [1] (pH 5.5) is -0.369; in series [1] (pH 6), -0.518; in series [1] (pH 6, modulator: ogerin) it was -0.362; in series [1] (pH 6.5, modulator: ogerin), -0.505. Moreover, in series [2], the surface expression score is -1.34.
Consider V65Q, for which the cAMP reporter score was -1.01 in series [1] (pH 5.5); -0.57 in series [1] (pH 6); -1.27 in series [1] (pH 6, modulator: ogerin); -0.978 in series [1] (pH 6.5, modulator: ogerin). Further, the surface expression score in series [2] is -1.91.

(Values after the GPR68 mutational scans of Howard et al. (2025).)
